Measured values published in patent publication US20250170203A1, “Methods of Treating Alzheimer's Disease” (Athira Pharma, Inc., priority 2021, published 2025).

Tests used:
[1] = test system: subjects with mild to moderate AD; test: Phase 2 ACT-AD study, ADAS-Cog11; type: in vivo, human; details: for ADAS-Cog11 change from baseline (CFB): ATH-1017 monotherapy (no concurrent AChEI)
From the text: The ADAS-Cog11 is designed to measure cognitive symptom changes in subjects with AD (Rosen, 1984). The standard 11 items are word recall, commands, constructional praxis, naming objects and fingers, ideational praxis, orientation, word recognition, spoken language ability, comprehension of spoken language, word-finding difficulty, and remembering test instructions. The test includes 7 performance items and 4 clinician-rated items, with a total score ranging from 0 (no impairment) to 70 (severe impairment). Therefore, higher scores indicate more severe cognitive impairment.
ADAS-Cog11 assessments are performed pre-dose at Visit 2b (Baseline/Day 1), and post-dose at approximately 1 hour (±30 minutes) at Visit 3 (Week 2), Visit 4 (Week 6), Visit 5 (Week 12), Visit 7 (Week 20), Visit 8/ET (Week 26), and Visit 9 (Safety follow-up; no dosing.
(§1) Secondary analyses include an evaluation of the correlation of ERP P300 latency with cognition/executive memory function, and comparison of treatment and placebo for the Global Statistical Test (GST), ADAS-Cog11, ADCS-CGIC, and ADCS-ADL23.

[2] = test system: subjects with mild to moderate AD; test: Phase 2 ACT-AD study, ADCS-CGIC; type: in vivo, human; details: mITT
From the text: The ADCS-CGIC consists of 3 parts: a guided baseline interview administered to the subject and caregiver/support person, a follow-up interview administered to the subject and caregiver/support person, and a clinician's rating review (Schneider, 1997). At study start, using the ADCS-CGIC baseline form as a guideline, the ADCS-CGIC rater obtains an integral clinical impression of the subject's status, can apply any formal testing at his/her discretion, and take personal notes regarding the subject's condition; these serve as a reference for future change ratings. The ADCS-CGIC is administered by an experienced clinician who remains independent of the subject's safety, cognitive and functional outcomes, and is trained and certified for this study. The ADCS-CGIC rater ideally remains the same individual for all ADCS-CGIC ratings.
ADCS-CGIC assessments are performed adjacent to ADAS-Cog11 and COWAT assessments pre-dose at Visit 2b (Baseline/Day 1), post-dose at Visit 5 (Week 12), and post-dose at Visit 8/ET (Week 26).
as §1

[3] = test system: subjects with mild to moderate AD; test: Phase 2 ACT-AD study, ADCS-ADL23; type: in vivo, human; details: mITT
From the text: The ADCS-ADL23 (Galasko, 1997) is a 23-item assessment of functional impairment in terms of activities of daily living administered to the support person/caregiver. It comprises 23 questions about the subject's involvement and level of performance across items representing daily living. The questions range from basic to instrumental activities of daily living. Each item is rated from the highest level of independent performance to complete loss. The total score range is from 0 to 78, with lower scores indicating greater functional impairment. ADCS-ADL23 assessments are performed pre-dose at Visit 2b (Baseline/Day 1), post-dose at Visit 5 (Week 12), and post-dose at Visit 8/ET (Week 26).
as §1

[4] = test system: subjects with mild to moderate AD; test: Phase 2 ACT-AD study, adverse events; type: in vivo, human
Experimental: An independent Data Safety Monitoring Board conducts periodic review and assessments of unblinded safety data (AEs, labs, ECG, etc.) throughout the study to ensure the safety of study subjects.
Subjects are analyzed based on actual treatment received.

AD subjects = test: ERP P300 latency after an 8-day treatment cycle in AD subjects; type: in vivo, human; details: end of an 8-day treatment cycle
From the text: Event-related potential (ERP) P300 latency is a functional measure of working memory processing speed and executive function that highly correlates with cognition. […] In some embodiments, after a single dose of ATH-1017, the AD subject has improved P300 latency. In some embodiments, by the end of an 8-day treatment cycle, average ERP P300 latency across the AD treatment group improves by 73 milliseconds compared to placebo group. In some embodiments, this improvement is a statistically significant change compared to placebo group.

[5] = Conversion of prodrug ATH-1017 in plasma after SC injection; type: in vivo; details: in the plasma after SC injection
From the text: ATH-1017 is an experimental Alzheimer's disease (AD) treatment, formulated as a sterile solution for subcutaneous (SC) injection. […] ATH-1017 was developed as a water-soluble prodrug of ATH-1001 to allow SC dosing in aqueous vehicles. The active drug ATH-1001 acts as an agonist of the hepatic growth factor (HGF) receptor and its tyrosine kinase, MET. Central nervous system (CNS) MET expression is crucial in maintaining the healthy adult brain (Hawrylycz, 2015), and is reduced in AD, particularly in the hippocampus (Hamasaki, 2014). The HGF/MET system presents a therapeutic target to treat neurodegeneration and restore cognitive function in AD.

[6] = test system: healthy young subjects, healthy elderly subjects and AD subjects
[7] = test system: subjects with mild to moderate Alzheimer's disease; details: Example 1; 40 or 70 mg/day SC, 26 weeks
[8] = test system: subjects with mild to moderate Alzheimer's disease; details: Example 3; open-label 70 mg/day SC, 26 weeks
[9] = test system: subjects with mild to moderate AD; test: Phase 2 ACT-AD study, ERP P300 latency; details: for P300 Latency change from baseline (CFB): ATH-1017 monotherapy (no concurrent AChEI)
[10] = 26 weeks, monotherapy, post hoc, mITT

CCCCCC(=O)N[C@@H](Cc1ccc(OP(=O)(O)O)cc1)C(=O)N[C@H](C(=O)NCCCCCC(N)=O)[C@@H](C)CC [ATH-1017] (Hexanoyl-[pY]-Ile-[Ahx]-NH2)
ADAS-Cog11 compared with placebo [1, 10]: −3.3 points
ADAS-Cog11 change from baseline (CFB) ([1]; W2, post hoc, mITT): −1.4
ADAS-Cog11 change from baseline (CFB) ([1]; W6, post hoc, mITT): −2.1
ADAS-Cog11 change from baseline (CFB) ([1]; W12, post hoc, mITT): −1.5
ADAS-Cog11 change from baseline (CFB) ([1]; W20, post hoc, mITT): −1
ADAS-Cog11 change from baseline (CFB) ([1]; W26, post hoc, mITT): 0.9
secondary endpoint ADAS-Cog11, treated subjects compared with placebo ([1]; mITT): not significant
effect on ADAS-Cog11 scores, in words ([1]; patients not receiving concurrent AChEI therapy): qualitatively stabilized or improved
secondary endpoint ADCS-CGIC, treated subjects compared with placebo [2]: not significant
secondary endpoint ADCS-ADL23, treated subjects compared with placebo [3]: not significant
subjects who developed treatment related Adverse Events ([4]; 40 mg/day ATH-1017 treated group): 23 subjects
subjects who developed treatment related Adverse Events ([4]; 70 mg/day ATH-1017 treated group): 24 subjects
adverse events relative to AChEIs ([4]; preliminary analysis): without the significant adverse events associated with AChEIs
most frequent Adverse Event ([4]; sometimes with transient, asymptomatic increases in absolute eosinophil count): injection site reaction
treatment related Serious Adverse Events ([4]; whole study): No treatment related Serious Adverse Events were observed
improvement of average ERP P300 latency compared to placebo group (AD subjects): 73 milliseconds
conversion of prodrug to active drug [5]: rapidly converted to the active drug ATH-1001
injection site reactions (pain, pruritus, and/or erythema), severity ([6]; human clinical studies, SC): mild in nature
safety and tolerability ([6]; single SC 2, 6, 20, 40, 60, 90 mg healthy young, 20, 40, 60, 80 mg SC OD 9 days healthy elderly, 40 mg SC OD 9 days AD subjects): safe and well tolerated
achievement of study endpoints [7]: achieves one or more of the primary, secondary, or exploratory endpoints
safety and tolerability [7]: acceptable safety and tolerability
achievement of study endpoints [8]: achieves one or more of the primary, secondary, or exploratory endpoints
safety and tolerability [8]: acceptable safety and tolerability
primary endpoint: statistically significant change in ERP P300 Latency versus placebo ([9]; 26 weeks, mITT, MMRM, pooled 40 mg and 70 mg dose groups): did not meet the primary endpoint
change in ERP P300 compared to placebo [9, 10]: −28 milliseconds
P300 Latency change from baseline (CFB) ([9]; W2, post hoc, mITT): -19.1 ms
P300 Latency change from baseline (CFB) ([9]; W6, post hoc, mITT): -10.8 ms
P300 Latency change from baseline (CFB) ([9]; W12, post hoc, mITT): -10.1 ms
P300 Latency change from baseline (CFB) ([9]; W16, post hoc, mITT): -17.6 ms
P300 Latency change from baseline (CFB) ([9]; W20, post hoc, mITT): -5.8 ms
P300 Latency change from baseline (CFB) ([9]; W26, post hoc, mITT): -10.7 ms
performance of monotherapy relative to AChEIs ([9]; preliminary analysis): performed similarly as monotherapy with AChEIs
effectiveness as monotherapy versus combination with AChEI therapy ([9]; preliminary results, post hoc analysis, mITT): more effective as a monotherapy than in combination with AChEI therapy

Read-outs that look alike come from different tables or passages of the source. Where a SMILES comes first, the peptide text is derived from it. [ ]: non-standard residue; d: D form. The star is where a group is joined. pY = N[C@@H](Cc1ccc(OP(=O)(O)O)cc1)C(=O)O; Hexanoyl = CCCCCC(=O)*; Ahx = NCCCCCC(=O)O
